Results: PubChem BioAssay AID1030 (National Center for Advancing Translational Sciences (NCATS), 2008)
Values joined by “and” are separate entries in the source; they are usually repeats but may differ in a detail not shown here. Equal values may be shown once. In all, about 220,000 compounds went through this assay and about 16,000 (7.3%) were called active. Inconclusive results, whose numbers are uncertain, are shown with a selection of clear calls. Calls come from the whole dose curve; as a rule, active = well fitted inhibition curve with a large enough effect (not every such curve was filed as active); inconclusive = small, poorly fitted or top-dose-only effect, or another doubt; inactive = no such curve, though single readings can be large or run the other way. Potencies of inconclusive entries are doubtful fits and often do not repeat.

Target: Aldehyde dehydrogenase 1A1 (Homo sapiens) (UniProt P00352)
Chain of UniProt P00352 (P00352 whole entry, looked up): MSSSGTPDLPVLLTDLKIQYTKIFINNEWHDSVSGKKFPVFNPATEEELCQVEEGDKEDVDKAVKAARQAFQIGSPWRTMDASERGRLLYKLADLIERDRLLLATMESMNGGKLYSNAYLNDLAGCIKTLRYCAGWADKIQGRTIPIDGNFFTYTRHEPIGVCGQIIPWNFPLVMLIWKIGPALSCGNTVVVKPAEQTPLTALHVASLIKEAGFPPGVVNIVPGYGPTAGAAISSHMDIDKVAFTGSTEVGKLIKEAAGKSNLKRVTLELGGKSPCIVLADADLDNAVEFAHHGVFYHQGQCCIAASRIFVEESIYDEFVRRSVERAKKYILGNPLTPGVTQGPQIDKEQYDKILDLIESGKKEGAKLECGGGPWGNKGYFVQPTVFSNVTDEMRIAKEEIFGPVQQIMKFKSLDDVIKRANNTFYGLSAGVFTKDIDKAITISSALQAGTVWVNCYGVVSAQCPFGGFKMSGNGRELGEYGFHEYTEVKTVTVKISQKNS
Test: qHTS Assay for Inhibitors of Aldehyde Dehydrogenase 1 (ALDH1A1);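 for activity, negative = inhibition: plate controls were no enzyme wells and a reference inhibitor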
Conditions: Purified ALDH1A1, NADH fluorescence, propionaldehyde substrate; series mostly up to 75.3 µM
Potency is the fitted concentration of half-maximal effect; tags give direction and shape of the fitted curve.

**Q.** With Cn1c(=O)c2c(nc(CN3CCC(C(N)=O)CC3)n2Cc2c(Cl)cccc2Cl)n(C)c1=O as the compound, how does the Potency read?
**A.** active: 14.1 µM

**Q.** COc1ccccc1CCNC(=O)C(=O)NCC1OCCN1S(=O)(=O)c1ccc(Br)cc1 (centres undefined) was tested. Which Potency did it give?
**A.** inactive

**Q.** For O=C(O)C1CCCCC1C(=O)NCCc1ccc(Cl)cc1 (centres undefined), which Potency is on record?
**A.** inconclusive: 39.8 µM [inhibitor, single point]

**Q.** Which Potency does the source give for COc1ccc(NC(=O)COC(=O)CCCOc2ccc(Cl)cc2Cl)cc1Cl here?
**A.** inactive

**Q.** For O=C(NN=C1CCCCCCC1)c1ccc2ccccc2n1, which Potency is on record?
**A.** active: 1.58 µM

**Q.** For COc1cccc(NC2c3ccccc3C(=O)N2Cc2ccco2)c1 (centres undefined), which Potency is on record?
**A.** inconclusive: 39.8 µM [inhibitor, single point]

**Q.** How did the Potency turn out when CCCCOc1ccccc1NC(=O)c1ccc(=O)[nH]c1 was run?
**A.** inactive

**Q.** For O=C(NC1CCCCC1)C(c1ccc2ncccc2c1)N(Cc1ccc2c(c1)OCO2)C(=O)c1cccs1 (centres undefined), which Potency is on record?
**A.** active: 5.01 µM

**Q.** With Cc1ccc(C(=O)N(CCCN(C)C)c2nc3ccc(Cl)cc3s2)cc1C as the compound, how does the Potency read?
**A.** inconclusive: 39.8 µM [inhibitor, single point]

**Q.** With COc1cc(OC)c(-c2nc3ccccc3s2)cc1OC as the compound, how does the Potency read?
**A.** inconclusive: 28.2 µM [inhibitor, partial curve]

**Q.** For Fc1ccc(-c2cc(-c3nnc4n3CCCCC4)c3ccccc3n2)cc1, which Potency is on record?
**A.** inactive

**Q.** For CCn1ncc([N+](=O)[O-])c1C(=O)Nc1ccc(C(=O)N2CCCCC2)cc1, which Potency is on record?
**A.** inconclusive: 31.6 µM [inhibitor, single point]

**Q.** With CCOc1ccc(CNC(=O)C2CCN(S(=O)(=O)N3CCCC3)CC2)cc1OC as the compound, how does the Potency read?
**A.** inconclusive: 17.8 µM [inhibitor, partial curve]

**Q.** With Cc1ccc2nc(SCc3nnc(-c4cccs4)o3)[nH]c2c1 as the compound, how does the Potency read?
**A.** active: 22.4 µM

**Q.** With O=C(CSc1nnc(-c2ccco2)n1Cc1ccccc1)NCc1ccccc1 as the compound, how does the Potency read?
**A.** inactive

**Q.** How did the Potency turn out when COCCn1c(CNc2ccc(F)cc2)nnc1SCC(=O)Nc1ccc(OC)cc1OC was run?
**A.** active: 12.6 µM

**Q.** O=C(COc1ccccc1Cl)OCC(=O)N1CCN(S(=O)(=O)c2ccccc2)CC1 was tested. Which Potency did it give?
**A.** inconclusive: 3.16 µM [inhibitor, full curve]

**Q.** Which Potency does the source give for CN(C)S(=O)(=O)c1cccc(NC(=S)Nc2cc(Cl)cc(Cl)c2)c1 here?
**A.** inconclusive: 35.5 µM [inhibitor, single point]

**Q.** Which Potency does the source give for O=C(CNC(=O)c1ccc(F)cc1)N/N=C/c1ccc(O)c([N+](=O)[O-])c1 here?
**A.** inconclusive: 39.8 µM [inhibitor, single point]

**Q.** How did the Potency turn out when COC(=O)Cn1ccc(-c2ccc(Cl)cc2)c(C#N)c1=O was run?
**A.** inconclusive: 39.8 µM [inhibitor, single point]

**Q.** With CCCc1cc(-c2n[nH]c(=S)n2CC)cs1 as the compound, how does the Potency read?
**A.** inconclusive: 14.1 µM [inhibitor, partial curve, poor fit]

**Q.** CCOc1ccc(-c2nc(CCl)cs2)cc1OC was tested. Which Potency did it give?
**A.** inconclusive: 28.2 µM [inhibitor, partial curve]

**Q.** With COc1ccc(OC)c(NC(=O)CSC2=NCCS2)c1 as the compound, how does the Potency read?
**A.** inconclusive: 28.2 µM [inhibitor, partial curve, poor fit]

**Q.** CC1(C)CC2CC(C)(CN2S(=O)(=O)c2ccc(C(=O)Nc3ccc(S(=O)(=O)N4CCOCC4)cc3)cc2)C1 (centres undefined) was tested. Which Potency did it give?
**A.** inconclusive: 22.4 µM [inhibitor, partial curve]

**Q.** COC(=O)c1ccc(NC(=O)Nc2ccc(F)cc2F)cc1 was tested. Which Potency did it give?
**A.** inactive

**Q.** How did the Potency turn out when O=C(Nc1ccc(Cl)cc1C(F)(F)F)C(Sc1nnc(-c2cccs2)o1)c1ccccc1 (centres undefined) was run?
**A.** active: 2.82 µM

**Q.** How did the Potency turn out when O=S(=O)(Nc1nc2ccccc2nc1Cl)c1ccc(Br)cc1 was run?
**A.** inconclusive: 12.6 µM [inhibitor, partial curve]

**Q.** How did the Potency turn out when CC(=O)C1=C(O)C(=O)N(CCCn2ccnc2)C1c1ccc(Br)cc1 (centres undefined) was run?
**A.** inactive

**Q.** Which Potency does the source give for O=C1c2ccccc2NC(c2ccccn2)N1c1ccc(Cl)cc1 (centres undefined) here?
**A.** inconclusive: 35.5 µM [inhibitor, single point]

**Q.** With O=C(NCC1COc2ccccc2O1)C1CCN(S(=O)(=O)c2cccc3nsnc23)CC1 (centres undefined) as the compound, how does the Potency read?
**A.** inactive

**Q.** Which Potency does the source give for CN(C)c1ccc(NC(=O)CN2CCN(S(=O)(=O)c3cc(Cl)ccc3Cl)CC2)cc1 here?
**A.** inconclusive: 20 µM [inhibitor, partial curve]

**Q.** O=C(NCc1ccccc1)c1ccc(N2C(=O)C3CCCCC3C2=O)cc1 (centres undefined) was tested. Which Potency did it give?
**A.** inconclusive: 22.4 µM [inhibitor, single point]

**Q.** Which Potency does the source give for Cc1ccccc1NC(=S)NCc1ccc2c(c1)cc(C)n2C here?
**A.** inconclusive: 28.2 µM [inhibitor, single point]

**Q.** Which Potency does the source give for Cc1cc(C)n(CCc2nc(-c3ccc(F)cc3)cs2)n1 here?
**A.** inactive

**Q.** Which Potency does the source give for NC(=O)NNC(=S)Nc1cccc2ccccc12 here?
**A.** inconclusive: 39.8 µM [inhibitor, single point]

**Q.** For O=C(CSc1nnnn1-c1ccc2c(c1)OCCO2)N1CCc2ccccc21, which Potency is on record?
**A.** inactive

**Q.** With COc1ccc(CCNC(=O)CSc2ccccc2)cc1OC as the compound, how does the Potency read?
**A.** inactive

**Q.** How did the Potency turn out when N=c1c(S(=O)(=O)c2ccc(Cl)cc2)cc2c(=O)n3ccccc3nc2n1CCN1CCOCC1 was run?
**A.** inconclusive: 25.1 µM [inhibitor, partial curve]

**Q.** For Cc1ccc(C)c(S(=O)(=O)Nc2ccccc2C(=O)Nc2ccc(S(=O)(=O)Nc3ncccn3)cc2)c1, which Potency is on record?
**A.** inconclusive: 25.1 µM [inhibitor, partial curve]

**Q.** With COC(=O)C1C(=O)C2=C(CC1C)NC(C)=C(C(=O)OCc1ccc(OC)cc1)C2c1ccc(C)o1 (centres undefined) as the compound, how does the Potency read?
**A.** inconclusive: 28.2 µM [inhibitor, partial curve]

**Q.** Which Potency does the source give for COc1ccc(-c2cc(C(F)(F)F)nc(NCc3cccnc3)n2)cc1 here?
**A.** inconclusive: 23.8 µM [inhibitor, single point]

**Q.** O=C(c1cc2ccc([N+](=O)[O-])cc2oc1=O)N1CCOCC1 was tested. Which Potency did it give?
**A.** inactive

**Q.** Which Potency does the source give for Cc1ccc(S(=O)(=O)N(C)C)cc1NC(=O)C1CCCC1 here?
**A.** inconclusive: 37.7 µM [inhibitor, single point]

**Q.** Which Potency does the source give for CCC(CC)c1nnc(NC(=O)c2c(-c3ccccc3)noc2C)s1 here?
**A.** inconclusive: 31.6 µM [inhibitor, single point]

**Q.** How did the Potency turn out when CCc1ccc(NC(=O)CN2C(=O)C(=O)N(Cc3ccccc3)C2=O)cc1 was run?
**A.** inactive

**Q.** With Cc1cc2ccccc2c(=O)n1CC(=O)NCC(=O)N1CCCC(C)C1 (centres undefined) as the compound, how does the Potency read?
**A.** inconclusive: 31.6 µM [inhibitor, single point]

**Q.** Which activity, negative = inhibition does the source give for CC1CCN(CC(=O)N2c3ccccc3Sc3cc4ccccc4cc32)CC1 here?
**A.** inactive: 1.93% [at 13.5 µM]

**Q.** With C/C(=N\NS(=O)(=O)c1ccc(C)c([N+](=O)[O-])c1)c1cc2ccccc2o1 as the compound, how does the Potency read?
**A.** inconclusive: 39.8 µM [inhibitor, single point]

**Q.** Cc1noc(C)c1CSc1ccccc1C(=O)N1CCN(c2ccccc2)CC1 was tested. Which Potency did it give?
**A.** inconclusive: 39.8 µM [inhibitor, single point]

**Q.** CCN(CC)c1ccc(NC(=O)C2CCCN(S(=O)(=O)c3cccnc3)C2)c(C)c1 (centres undefined) was tested. Which Potency did it give?
**A.** inactive

**Q.** Which Potency does the source give for COc1ccc(C2CC(=O)C3=C(C2)Nc2ncnn2C3c2ccccc2C)cc1 (centres undefined) here?
**A.** inconclusive: 35.5 µM [inhibitor, single point]

**Q.** How did the Potency turn out when CCN(CC)S(=O)(=O)c1ccc2[nH]cc(C(=O)NCCc3ccccc3)c(=O)c2c1 was run?
**A.** inconclusive: 15.8 µM [inhibitor, partial curve]

**Q.** For COC(=O)N1CCC2(CCCN(c3ncccn3)C2)CC1, which Potency is on record?
**A.** inactive

**Q.** With CCOC(=O)c1nnc(-c2ccccc2)nc1Oc1ccccc1Cl as the compound, how does the Potency read?
**A.** inconclusive: 39.8 µM [inhibitor, single point]

**Q.** How did the Potency turn out when Cc1cc(-c2n[nH]c(=S)n2-c2ccc(F)cc2)nn1C was run?
**A.** inconclusive: 39.8 µM [inhibitor, single point]

**Q.** COC(=O)c1ccc(CC(=O)c2ccc(O)cc2O)o1 was tested. Which Potency did it give?
**A.** inconclusive: 39.8 µM [inhibitor, single point]

**Q.** CCOc1cc(-c2c(C#N)c(N)nc3c2CCc2ccccc2-3)ccc1O was tested. Which Potency did it give?
**A.** inconclusive: 39.8 µM [inhibitor, single point]

**Q.** For O=c1[nH]c(CN2CCc3ccccc32)nc2scc(-c3cccs3)c12, which Potency is on record?
**A.** active: 25.1 µM

**Q.** How did the Potency turn out when O=c1[nH]c(CSc2ccccn2)nc2c1cnn2-c1ccccc1 was run?
**A.** inconclusive: 31.6 µM [inhibitor, single point]

**Q.** O=C(Cn1nc(Cl)nc1Cl)c1cc2ccccc2oc1=O was tested. Which Potency did it give?
**A.** inconclusive: 28.2 µM [inhibitor, partial curve]

**Q.** How did the Potency turn out when Cc1ccc(NC(=O)Cn2cnc3cc([N+](=O)[O-])ccc3c2=O)c(Cl)c1 was run?
**A.** active: 2.82 µM

**Q.** How did the Potency turn out when Cc1cccc(N2C(=O)/C(=C\c3ccc(C(=O)O)cc3)c3ccccc3C2=O)c1 was run?
**A.** inconclusive: 39.8 µM [inhibitor, single point]

**Q.** With COc1ccc(C(=O)Nc2ccc(S(=O)(=O)Nc3cc(C)nc(C)n3)cc2)c(OC)c1 as the compound, how does the Potency read?
**A.** inconclusive: 22.4 µM [inhibitor, partial curve]

**Q.** With CC(=O)CSc1nc2ccccc2o1 as the compound, how does the Potency read?
**A.** inconclusive: 39.8 µM [inhibitor, single point]

**Q.** How did the Potency turn out when Cn1c(N)c(C(=O)COC(=O)CC2CC3CCC2C3)c(=O)n(C)c1=O (centres undefined) was run?
**A.** inconclusive: 22.4 µM [inhibitor, single point]

**Q.** With Cc1nc(NC(=S)NC(=O)c2cncc(Br)c2)ccc1Br as the compound, how does the Potency read?
**A.** inactive

**Q.** With O=c1cc(-c2ccccc2Cl)oc2c(Br)ccc(O)c12 as the compound, how does the Potency read?
**A.** inconclusive: 14.1 µM [inhibitor, partial curve] and inconclusive: 35.5 µM [inhibitor, partial curve]

**Q.** For CCOC(=O)c1nc(Nc2ccc(C(=O)OC)cc2)c2ccccc2n1, which Potency is on record?
**A.** inconclusive: 35.5 µM [inhibitor, single point]

**Q.** Which Potency does the source give for CCN(CC)C(=O)CSc1nc2ccccc2c(=O)n1-c1ccccc1OC here?
**A.** inconclusive: 22.4 µM [inhibitor, partial curve]
